Assay results reported in PMC12040169 (PLOS Biology, 2025).
The other results are listed elsewhere or left out.

Tested on: T1, C. trachomatis L2/434/Bu expressing GFP (CTL2-GFP)
T1 construct: L2/434/Bu GFP intracellular growth in HeLa cells
Parameters: species or system HeLa; C. trachomatis total inclusion area by high-content imaging, normalised to DMSO
Conditions: total inclusion area; 28.5 h, 10 µM; inhibitor
Outline: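 Following bulk GFP and resorufin fluorescence reads, infected cells were fixed, Hoechst-stained and imaged on a high-content platform. Inclusion total area and number per well served as growth proxies; nuclei counts indicated host viability. MICs were derived as for the fluorescence assay.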

SMILES | % of control remaining
Nc1nc(=O)n([C@@H]2O[C@H](CO)[C@H](O)C2O)cc1I (some centres unmarked) [CBK201306] | 100.659
CCN(CC)C(=O)c1cccc(NS(=O)(=O)c2ccc(C)c(C(=O)O)c2)c1 [CBK296665] | 111.218
O=C(O)CCCCCN1C(=O)/C(=C/c2ccc(O)c(O)c2)SC1=S [CBK262771] | 97.7567
CCCCC12CN3CC(C)(CN(C1)C31C(=O)Nc3ccc(Br)cc31)C2=O (centres unmarked) [CBK267348] | 99.2622
CCCc1[nH]ncc1C(=O)N1CCN(c2ccnc(N(C)C)n2)CC1 [CBK305406] | 50.5434
NS(=O)(=O)c1ccc(S(=O)(=O)NCCc2c[nH]c3ccccc23)cc1 [CBK266691] | 104.18
Cc1occc1C(=O)NC(C)c1ccc2c(c1)OCO2 (centres unmarked) [CBK268153] | 101.322
CS(=O)(=O)N(Cc1ccccc1)c1ccc(C(=O)Nc2ccc(-c3ccccc3)cc2)cc1 [CBK262754] | 88.8449
COc1ccc(CC(=O)Nc2ccc(-c3nnc(-c4ccccc4)o3)cc2)cc1OC [CBK267414] | 102.032
O=C(c1cc(F)c(F)cc1F)N1CCC2(CCCN(Cc3cc(=O)[nH]c(=O)[nH]3)C2)C1 (centres unmarked) [CBK132010] | 94.3384
Nc1ncc(-c2cncnc2)nc1N1CCOCC1 [CBK063422] | 77.1302
C=CCSc1nc2sc3c(c2c(=O)[nH]1)CCCC3 [CBK287344] | 97.6674
CCOC(=O)c1ccc(S(=O)(=O)Nc2cc(C(=O)O)ccc2F)cc1 [CBK295308] | 113.648
COc1ccc(Cl)cc1S(=O)(=O)NC(C)C(=O)O (centres unmarked) [CBK270233] | 75.5786
CCOC(=O)c1ccccc1NC(=O)N(Cc1ccc2ccccc2c1)CC1CCNCC1 [CBK049769] | 87.2293
Cc1cc(OCC(=O)NCCCN2CCOCC2)cc(C)c1Br [CBK265082] | 107.571
Cc1cccc(C)c1NC(=O)CCC(=O)OCc1ccccc1 [CBK267158] | 89.2643
CC(C)(CC(=O)Nc1sc2c(c1C(=O)O)CCC2)CC(=O)Nc1sc2c(c1C(=O)O)CCC2 [CBK296100] | 72.2615
CCC(CO)Nc1cncc(-c2cccs2)n1 (centres unmarked) [CBK065534] | 89.1684
COc1cc(CN2CCC(C)CC2)c([N+](=O)[O-])cc1OC [CBK261911] | 104.224
COC(=O)C1CCN(Cc2nc3sc4c(c3c(=O)[nH]2)CCC(C)C4)CC1 (centres unmarked) [CBK304978] | 80.8826
Cc1noc(C)c1CC(=O)NC(C)c1nc2ccccc2s1 (centres unmarked) [CBK281467] | 94.9319
CC(C)C(=O)Nc1cc2ccccc2c(-c2ccc(N(C)C)cc2)n1 [CBK085776] | 84.9105
Cc1nn(C)c(C)c1CCC(=O)NCC(C)Oc1ccccc1F (centres unmarked) [CBK305194] | 96.164
CN(CCNC(=O)Nc1ccc2c(c1)oc(=O)n2C)C1CCCC1 [CBK305503] | 34.263
C(=N\N=C\c1ccccn1)/c1ccccn1 [CBK015627] | 48.4731
O=C(NCc1ccccn1)c1cc2cc(Cl)ccc2[nH]1 [CBK107265] | 92.2208

SMILES | % of control remaining
O=S(=O)(NCCSc1ccccn1)c1ccc(Br)cc1 [CBK264001] | 111.788
COc1cc(/C=C/C(=O)NCc2ccccn2)cc(OC)c1OC [CBK264752] | 105.47
CC(=O)c1cccc(NC(=O)N(Cc2ccco2)CC2CCCO2)c1 (centres unmarked) [CBK304467] | 96.0473
C#CCN(C1CCc2ccccc21)S(=O)(=O)c1cc(C(=O)NC)n(C)c1 (centres unmarked) [CBK306235] | 80.3074
COc1ccc(C(NC(=O)CC2CCN(c3nc(C)cc(C)n3)CC2)C2CC2)cc1 (centres unmarked) [CBK285994] | 122.01
Cc1ccc(S(=O)(=O)N2C[C@H]3C[C@H](NC(=O)C4CC4C)[C@H]3C2)cc1 (some centres unmarked) [CBK285318] | 78.3698
CC(C)CC(=O)N1CCCn2nc(-c3ccncc3)cc2C1 [CBK288606] | 110.758
c1ccc(C(CCN2CCC[C@@H]2CN2CCCC2)c2ccccc2)cc1 [CBK149109] | 83.2129
Cn1ncc(N2CCC(CNC(=O)COc3ccccc3)C2)cc1=O (centres unmarked) [CBK306810] | 80.7703
CN1CCN(CCC(=O)Nc2ccc(Cl)c(C(F)(F)F)c2)CC1 [CBK265995] | 53.1995
COc1cccc(C(=O)N2CCC(Cc3ccc(-c4ccccc4)cc3)(C(N)=O)CC2)c1 [CBK285770] | 89.4464
O=C(CSc1nc(-c2ccco2)cc(C(F)(F)F)n1)Nc1ccc(C(=O)N2CCCCC2)cc1 [CBK266238] | 123.991
Nc1cc2ccccc2c(-c2cccc(C(F)(F)F)c2)n1 [CBK085721] | 69.8088
Cc1cc(I)ccc1NC(=O)CCC(=O)N/N=C/c1ccco1 [CBK261991] | 102.161
c1coc(-c2nc3cnccn3c2NC2CCCC2)c1 [CBK283678] | 104.46
COC(=O)Nc1nc2cc(F)c(Cl)cc2[nH]1 [CBK026927] | 19.8074
O=C(NCCc1ccc(Cl)cc1)C1CCN(C(=O)c2ccc3nsnc3c2)C1 (centres unmarked) [CBK285553] | 106.529
CC(Oc1cccc(F)c1)C(=O)N(C)Cc1cccnc1 (centres unmarked) [CBK304841] | 40.3506
Cc1cc(NC(=O)CS(=O)(=O)c2cccc(C(F)(F)F)c2)on1 [CBK306015] | 111.365
CCn1c(N2CCCC(C(=O)NC3CC3)C2)nc2ccccc21 (centres unmarked) [CBK282419] | 125.628
O=C(Nc1cc(NC(=O)C2C3C=CC(C3)C2C(=O)O)ccc1Cl)c1cccs1 (centres unmarked) [CBK263959] | 100.289
COc1cc(C2N3CC4(C)CN2CC(C)(C3)C4=O)ccc1O (centres unmarked) [CBK261453] | 91.6219
OCCc1ccc(Nc2cc(-c3ccsc3)ncn2)cc1 [CBK090769] | 112.28
CCN1CCN(CCOc2c(OC)cccc2OC)CC1 [CBK267375G] | 126.769
COc1ccc([C@@]23CC[C@@H](NC(=O)c4ccc5occc5c4)C[C@@H]2N(C)CC3)cc1OC [CBK074253T] | 91.7523
COC(=O)c1sccc1NC(=O)c1ccccc1Cl [CBK066860] | 91.8553
O=C(c1cccs1)N1C[C@H](c2ccc(F)cc2)[C@H]2CN(Cc3ccc(F)cc3)CC[C@H]21 [CBK285545] | 94.9417

SMILES | % of control remaining
Cc1nn(CC(=O)N(C)C(C)c2ccncn2)c(=O)c2ccccc12 (centres unmarked) [CBK307669] | 60.5107
CC(C)c1nc(NCc2nnc(C(C)C)n2C)nc(N(C)C)n1 [CBK306402] | 70.7273
O=C1COc2ccccc2C/C=C/CC2(CCCN(C(=O)Cn3ccnc3)C2)CN1 (centres unmarked) [CBK292050] | 78.2542
CCC(NC1CCc2nc(COC)nn2C1)c1ccccc1O (centres unmarked) [CBK305132] | 79.3306
O=C(Cc1cc(F)c(F)c(F)c1)Nc1ccc2[nH]ccc2c1 [CBK159684] | 102.17
CC1CCc2c(sc(NC(=O)CCC(=O)O)c2C(=O)N2CCOCC2)C1 (centres unmarked) [CBK307550] | 69.1245
O=[N+]([O-])c1ccccc1S(=O)(=O)N1CCN(S(=O)(=O)c2ccc(F)cc2)CC1 [CBK264236] | 99.8038
O=C1c2ccccc2C(=O)N1CC1c2ccccc2CCN1S(=O)(=O)c1cccc2nsnc12 (centres unmarked) [CBK261133] | 106.672
Cc1nn(C)cc1S(=O)(=O)Nc1cccc(-c2ccc(F)cc2)c1 [CBK282788] | 78.2624
CCOc1ccccc1C(=O)Nc1cc(C)c2c(=O)oc3ccccc3c2n1 [CBK291240] | 98.4995
O=C(C1CC1)N1C[C@@H](c2ccccc2)[C@H](c2cc(C(F)F)[nH]n2)C1 [CBK284791] | 122.195
Cc1onc(-c2ccccc2Cl)c1C(=O)N(C)C [CBK160325] | 146.606
O=C(Nc1ccccc1-n1cnnn1)c1ccccc1Cl [CBK287994] | 118.294
CS(=O)(=O)N1CCCC(C(=O)Nc2nccs2)C1 (centres unmarked) [CBK287834] | 71.4895
N#CCCN(C(=O)NCCCN1CCCC1=O)C1CCCCC1 [CBK156379] | 105.638
O=C(Nc1ccc(C(=O)O)c(O)c1)c1ccc(Br)o1 [CBK270053] | 99.5732
Brc1ccc2[nH]c3c(c2c1)CCOC31CCN(CC2CCCCO2)CC1 (centres unmarked) [CBK040648] | 69.1981
Cc1ccc(NC(=O)Nc2cc(S(N)(=O)=O)ccc2C)cc1 [CBK093428] | 91.678
CCc1nn(CC(=O)N(CC)CC)c(=O)c2cc3occc3n12 [CBK283656] | 85.294
COc1ccc2c(c1)OC1(CCN(CC(O)c3ccc(-c4ccccc4)cc3)CC1)CC2O (centres unmarked) [CBK286346] | 99.7914
COc1ccc2c(c1)c(C(NCc1cccc(C(F)(F)F)c1)C(N)=O)nn2Cc1ccccc1 (centres unmarked) [CBK010715] | 16.3211
O=C(CN1C(=O)N2CCN=C2c2ccccc21)NC1CC1 [CBK283958] | 71.2752
Cc1sc(NC(=O)CN(Cc2cnn(C)c2)C(C)C)c(C#N)c1C [CBK306303] | 85.0704
COC(=O)c1sccc1NC(=O)Cn1nnc(-c2ccc(C)cc2)n1 [CBK267183] | 125.01
COc1ccc(/C=N\N(C)c2nc(-c3ccccc3)cc(-c3ccc(Br)cc3)n2)cc1OC [CBK261799] | 102.581
CCCCn1cnc2c(c1=O)c1nc3ccccc3nc1n2CCc1ccc(OC)cc1 [CBK269538] | 71.7785
